Measurements from paper PMC4242493.
The list shows a part of the results. The list includes weakly bound sequences.

Target: MaxL homodimer (UniProt P61244)
Experiment: universal protein-binding microarray (PBM)
Conditions: PBS-based mixture, 10 nM His-tagged protein dimer, 2% milk, 200 ng/uL BSA, 50 ng/uL salmon testes DNA, 0.02% TX-100; detection with Alexa 488 anti-His …; high values mean tight binding; most listed sequences are background and not binding sites; double strand, one strand shown

Chain of UniProt P61244 (P61244 whole entry): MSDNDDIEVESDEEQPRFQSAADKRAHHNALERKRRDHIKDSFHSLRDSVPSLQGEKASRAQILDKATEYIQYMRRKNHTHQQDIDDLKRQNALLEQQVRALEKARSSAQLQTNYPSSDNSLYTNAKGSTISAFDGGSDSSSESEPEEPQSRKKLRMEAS

Sequence | binding signal (normalized occupancy)
AGAGTTTG | 0.073
GACTGGCA | 0.071
TAGACCTA | 0.0731
AAGCCATG | 0.0909
ACCAGCAA | 0.0755
CTGCTAGC | 0.0674
ATGGTTCG | 0.0737
GGACCCGA | 0.0667
GGAGGGTA | 0.0805
AACACGTT | 0.128
CATATGAG | 0.0887
GCACCAAA | 0.0753
CTTGGCTA | 0.0706
AAGATAAC | 0.079
AACTATCG | 0.0759
CAACTCTG | 0.0676
CGCGATGA | 0.0718
CGCAAGAC | 0.0714
ATTAGAGA | 0.0726
ACTCGCTC | 0.0679
AAAATACG | 0.0787
GACTATGC | 0.083
ACCGTTAA | 0.0779
GTGAAAAC | 0.0723
TCCAGGGA | 0.0713

Sequence | binding signal (normalized occupancy)
CGCCAGGA | 0.0676
CACCAGAC | 0.0811
CTACCTCA | 0.0778
AAGACCGT | 0.0755
TTCTGCAA | 0.0726
AGCGACAG | 0.0777
ATTCTGTA | 0.0764
CCCCTAGC | 0.0728
AAACGTAA | 0.0743
CGAGCACG | 0.0846
CCTGTGTA | 0.0852
CCCGAAAC | 0.0747
ACCCGATG | 0.0757
AGGGATAC | 0.0755
AGATTTGG | 0.0791
AGTTCTCG | 0.074
CCGTTGCG | 0.0657
TAGCGTGA | 0.0905
GGGTTACA | 0.0762
ATGTGCCC | 0.0916
CAAGGCGA | 0.0744
TAATGTCA | 0.0894
GAACGTAC | 0.0793
CTTTTTTA | 0.0743
ACCCGCTG | 0.0761

Sequence | binding signal (normalized occupancy)
CCGTCGAC | 0.0721
CATTATCA | 0.0878
CGTTAGGC | 0.0739
GTTGAGAA | 0.076
GGTAACGA | 0.0778
TATTCCAA | 0.0748
ATCGTCCG | 0.0709
CTGGTTAC | 0.0749
CACACCTC | 0.0869
TACGTAAA | 0.0797
AGATAAGG | 0.075
CCACGTCG | 0.086
CAGATCTG | 0.0738
ACCCGAAT | 0.0777
CCTTTTCA | 0.0767
TCACGTAA | 0.086
AACAAGCG | 0.0731
AAAATTGC | 0.0741
CGTTTCAA | 0.0726
ATCCAGTG | 0.0764
CCGGTACC | 0.071
CAAGTGTC | 0.0772
AGTAAACA | 0.073
CCTCTTAA | 0.0711
TTCACGAA | 0.0703

Sequence | binding signal (normalized occupancy)
ACCCCAAA | 0.0761
CGCTTCCC | 0.0822
ATATGCGC | 0.085
AGGCAGCG | 0.0692
ACATACAA | 0.083
CCCTAATA | 0.0744
AAAGTCCT | 0.0686
CGCATCAA | 0.0816
AATCTCCA | 0.0749
AAGCAGAA | 0.0742
AATGGCGC | 0.0736
AATTCCAG | 0.0737
TATGCTAA | 0.0798
GCCATGAC | 0.0739
ATGCGAAA | 0.0802
ACGGTCCA | 0.0703
AAGACGTG | 0.0775
CAGTCACC | 0.0819
AAGGTTCA | 0.0746
GGGAAGAC | 0.0749
CACGCCCG | 0.0926
AGGTATGG | 0.0844
CCTCTGAC | 0.073
AGTCCCAA | 0.0694
GCGTGTAA | 0.0923

Sequence | binding signal (normalized occupancy)
GCCACTAA | 0.0699
GAGCACCC | 0.0744
GGTGCCAA | 0.0743
ACGGATCC | 0.0712
AGACCTCA | 0.0749
ACTTATCT | 0.0801
GTGGTGCA | 0.0801
ACTCCACT | 0.073
CCGATGAG | 0.0731
GCGTTGTA | 0.0819
GATACCCA | 0.0758
ATAGCCCG | 0.0721
CGTTCAAG | 0.0769
CGGGGGGA | 0.072
GCTAAACA | 0.0713
CACGGAGA | 0.0728
AAGTACGA | 0.0766
CACCCGAG | 0.0705
CACGTGCA | 0.588
ACAGACCT | 0.0767
CACTGACG | 0.0731
ATCCGCCA | 0.0773
CCTTAGCA | 0.0726
TAACACCA | 0.077
CGTATGAG | 0.0785

Sequence | binding signal (normalized occupancy)
GTCGGCGA | 0.0718
ACACGCAG | 0.0812
GGTCAGCA | 0.079
GTAATGAA | 0.0803
AGCCTTCA | 0.0757
AATTGGAG | 0.0717
CCTAAATA | 0.0766
AGGCCAAC | 0.0745
AAGAGCGT | 0.0807
CCTGTGCG | 0.0733
ATCTGTGA | 0.0729
GAACTCAC | 0.0737
CACAAGTC | 0.0787
CCACGAAA | 0.0726
ATCCTTAA | 0.0708
CCGCCACC | 0.0762
ATTCGGAA | 0.075
AGGAAGCC | 0.0714
ATTCTCTC | 0.0771
ACATATTA | 0.0797
CGAGTGAA | 0.0696
GCTGCGTA | 0.0737
ATGAGCAT | 0.0887
ACCCACGT | 0.0984
ACAAGAAC | 0.0777

Sequence | binding signal (normalized occupancy)
AGAGAAGA | 0.0737
CATATGAA | 0.088
CCTAGGAC | 0.0756
ACGATCGA | 0.0749
GACACGTC | 0.083
AGGCTAGC | 0.0737
ACGCGACA | 0.075
CTTAGCCC | 0.0688
CGTAAAAA | 0.0732
GTAAGGCA | 0.0825
CAGGCAAC | 0.0725
CCGGCAAG | 0.0733
CGGACCCC | 0.0732
AGAGTACT | 0.0714
ATGTCTGA | 0.0806
CAACGTAA | 0.0776
CGGGCCCC | 0.0686
TGAGTCAA | 0.0767
ATATTGAA | 0.0809
CGCAGGCG | 0.0716
AGCAGGCG | 0.078
CTCCCAAG | 0.0733
